Assay results as given in PubChem BioAssay (NCI).
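Following 48 hours of exposure in 96-well plates, responses at five concentrations were used to interpolate endpoints linearly. GI50: concentration for 50% inhibition of growth.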 Some entries of the source have several records that differ or are many. This list holds those alone. The source may hold further records. For part of these data: The records of an entry are repeated measurements across runs, samples, wells, individuals or studies. Brackets tell where a record comes from. Letters hold for one entry only.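 TGI: total growth inhibition.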 For part of these data: A record mostly stands for its own series of concentrations, which the source does not state; some values may only mark the edge of a range.

How the values were obtained:
Assay in all cases: inhibition of tumour cell growth, NCI panel, 48 h
LOX IMVI melanoma = system: LOX IMVI melanoma
IGROV1 ovarian = system: IGROV1 ovarian
TK-10 renal = system: TK-10 renal
SK-MEL-28 melanoma = system: SK-MEL-28 melanoma
SK-OV-3 ovarian = system: SK-OV-3 ovarian
A498 renal = system: A498 renal
HOP-92 NSCLC = system: HOP-92 NSCLC
T-47D breast = system: T-47D breast
NCI-H226 lung = system: NCI-H226 lung
U251 CNS = system: U251 CNS
KM12 colon = system: KM12 colon
NCI-H522 lung = system: NCI-H522 lung
OVCAR-8 ovarian = system: OVCAR-8 ovarian
CCRF-CEM leukemia = system: CCRF-CEM leukemia
SN12C renal = system: SN12C renal
DU-145 prostate = system: DU-145 prostate
ACHN renal = system: ACHN renal
SF-295 CNS = system: SF-295 CNS

## O=C(NC[C@H](O)CO)c1ccncc1Nc1ccc(I)cc1F
LOX IMVI melanoma
  GI50: 435 nM [sample A, mean of 2 tests] and 36 nM [sample B, mean of 2 tests]
IGROV1 ovarian
  GI50: 86.7 nM [sample A, mean of 2 tests] and 1.53 µM [sample B, mean of 2 tests]
TK-10 renal
  GI50: 18.3 nM [sample A, mean of 2 tests] and 10.1 µM [sample B, 1 test]
SK-MEL-28 melanoma
  TGI: 193 nM [sample A, mean of 2 tests] and > 100 µM [sample B, mean of 2 tests]

## CCOc1cc2ncc(C#N)c(Nc3ccc(OCc4ccccn4)c(Cl)c3)c2cc1NC(=O)/C=C/CN(C)C
SK-OV-3 ovarian
  TGI: 13.5 µM [sample A, 1 test] and 22.8 nM [sample B, mean of 2 tests]
A498 renal
  TGI: 27.1 µM [sample A, mean of 2 tests] and 2.24 µM [sample B, mean of 2 tests]
HOP-92 NSCLC
  GI50: 2.68 µM [sample A, mean of 2 tests] and 233 nM [sample B, mean of 2 tests]
T-47D breast
  GI50: 723 nM [sample A, mean of 2 tests] and 3.88 nM [sample B, mean of 2 tests]
TK-10 renal
  TGI: 452 nM [sample A, mean of 2 tests] and > 10 µM [sample B, 1 test]

## COc1ccc(/C=C\c2cc(OC)c(OC)c(OC)c2)cc1OC
NCI-H226 lung
  TGI: 199 nM and 5.87 µM
U251 CNS
  TGI: 2.04 µM and > 100 µM
KM12 colon
  TGI: 507 nM and > 100 µM
NCI-H522 lung
  TGI: 152 nM and 15 µM
OVCAR-8 ovarian
  TGI: 1.15 µM and 14.9 µM
CCRF-CEM leukemia
  TGI: 40.4 µM and 430 nM
SN12C renal
  TGI: 2.28 µM and > 100 µM

## NC(=S)N/N=C/c1ncccc1N
DU-145 prostate
  TGI: 7.41 µM [sample A] and > 100 µM [sample B]
ACHN renal
  TGI: 1.01 µM [sample A] and 14.3 µM [sample B]

## CN(C)c1ccc2nc3ccc(=[N+](C)C)cc-3sc2c1
OVCAR-8 ovarian
  TGI: 15 µM [sample A, mean of 2 tests] and 1.44 µM [sample B, mean of 2 tests]
CCRF-CEM leukemia
  TGI: > 100 µM [sample A, mean of 2 tests] and 9.88 µM [sample B, mean of 2 tests]

## COC(=O)c1cc2ccc(OC(C)=O)c(OC(C)=O)c2cn1
SF-295 CNS
  TGI: 7.55 µM and 98.9 µM
